# Experimental data: PMC9911399, “Two distinct binding modes provide the RNA-binding protein RbFox with extraordinary sequence specificity”
# Where a chain is given by its changes, count along the chain named. Some of the results follow.
# T1: RBFOX1 RRM RbFoxmut (Fox-RRM*) (Homo sapiens, UniProt Q9NWB1 109-208, R118D;E147R;N151S;E152T)
# T1 sequence: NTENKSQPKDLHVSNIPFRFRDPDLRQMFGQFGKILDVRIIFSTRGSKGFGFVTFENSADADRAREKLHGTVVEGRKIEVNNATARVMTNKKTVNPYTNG
# B1: CAACAAC (DNA:RNA)
# RNA: GGGAGACCGGAAUUCAGAUUGUCCCAACAACUUAAAUCCCGUCGUAGCCACCA
# DNA 1: CAATCTGAATTCCGGTCTCCC
# DNA 2: TGGTGGCTACGACGGGATT
# B2: AUGUUGC (DNA:RNA)
# RNA: B1 RNA with C25A, A26U, A27G, C28U, A29U, A30G
# DNA 1: CAATCTGAATTCCGGTCTCCC
# DNA 2: TGGTGGCTACGACGGGATT
# B3: UUGUUAU (DNA:RNA)
# RNA: B1 RNA with C25U, A26U, A27G, C28U, A29U, C31U
# DNA 1: CAATCTGAATTCCGGTCTCCC
# DNA 2: TGGTGGCTACGACGGGATT
# B4: GCGCCUA (DNA:RNA)
# RNA: B1 RNA with C25G, A26C, A27G, A29C, A30U, C31A
# DNA 1: CAATCTGAATTCCGGTCTCCC
# DNA 2: TGGTGGCTACGACGGGATT
# B5: AUCCAAC (DNA:RNA)
# RNA: B1 RNA with C25A, A26U, A27C
# DNA 1: CAATCTGAATTCCGGTCTCCC
# DNA 2: TGGTGGCTACGACGGGATT
# B6: UUAACCG (DNA:RNA)
# RNA: B1 RNA with C25U, A26U, C28A, A29C, A30C, C31G
# DNA 1: CAATCTGAATTCCGGTCTCCC
# DNA 2: TGGTGGCTACGACGGGATT
# B7: GUAAGCU (DNA:RNA)
# RNA: B1 RNA with C25G, A26U, C28A, A29G, A30C, C31U
# DNA 1: CAATCTGAATTCCGGTCTCCC
# DNA 2: TGGTGGCTACGACGGGATT
# B8: GUUCAUU (DNA:RNA)
# RNA: B1 RNA with C25G, A26U, A27U, A30U, C31U
# DNA 1: CAATCTGAATTCCGGTCTCCC
# DNA 2: TGGTGGCTACGACGGGATT
# B9: UUCGUGG (DNA:RNA)
# RNA: GGGAGACCGGAAUUCAGAUUGUCCUUCGUGGUUAAAUCCCGUCGUAGCCACCA
# DNA 1: CAATCTGAATTCCGGTCTCCC
# DNA 2: TGGTGGCTACGACGGGATT
# B10: AACCGUC (DNA:RNA)
# RNA: B1 RNA with C25A, A27C, A29G, A30U
# DNA 1: CAATCTGAATTCCGGTCTCCC
# DNA 2: TGGTGGCTACGACGGGATT
# B11: UUCCAGG (DNA:RNA)
# RNA: B9 RNA with G28C, U29A
# DNA 1: CAATCTGAATTCCGGTCTCCC
# DNA 2: TGGTGGCTACGACGGGATT
# B12: AAGCACU (DNA:RNA)
# RNA: B1 RNA with C25A, A27G, A30C, C31U
# DNA 1: CAATCTGAATTCCGGTCTCCC
# DNA 2: TGGTGGCTACGACGGGATT
# B13: CUAUAGG (DNA:RNA)
# RNA: B1 RNA with A26U, C28U, A30G, C31G
# DNA 1: CAATCTGAATTCCGGTCTCCC
# DNA 2: TGGTGGCTACGACGGGATT
# B14: UUUGGGG (DNA:RNA)
# RNA: B9 RNA with C27U, U29G
# DNA 1: CAATCTGAATTCCGGTCTCCC
# DNA 2: TGGTGGCTACGACGGGATT
# B15: CCCGGCU (DNA:RNA)
# RNA: B9 RNA with U25C, U26C, U29G, G30C, G31U
# DNA 1: CAATCTGAATTCCGGTCTCCC
# DNA 2: TGGTGGCTACGACGGGATT
# B16: AUAUGAA (DNA:RNA)
# RNA: B1 RNA with C25A, A26U, C28U, A29G, C31A
# DNA 1: CAATCTGAATTCCGGTCTCCC
# DNA 2: TGGTGGCTACGACGGGATT
# B17: UGUCGUC (DNA:RNA)
# RNA: B1 RNA with C25U, A26G, A27U, A29G, A30U
# DNA 1: CAATCTGAATTCCGGTCTCCC
# DNA 2: TGGTGGCTACGACGGGATT
# B18: ACCUGUU (DNA:RNA)
# RNA: B9 RNA with U25A, U26C, G28U, U29G, G30U, G31U
# DNA 1: CAATCTGAATTCCGGTCTCCC
# DNA 2: TGGTGGCTACGACGGGATT
# B19: GAGCUCG (DNA:RNA)
# RNA: B1 RNA with C25G, A27G, A29U, A30C, C31G
# DNA 1: CAATCTGAATTCCGGTCTCCC
# DNA 2: TGGTGGCTACGACGGGATT
# B20: CGACUGC (DNA:RNA)
# RNA: B1 RNA with A26G, A29U, A30G
# DNA 1: CAATCTGAATTCCGGTCTCCC
# DNA 2: TGGTGGCTACGACGGGATT
# B21: UAAAAAC (DNA:RNA)
# RNA: B1 RNA with C25U, C28A
# DNA 1: CAATCTGAATTCCGGTCTCCC
# DNA 2: TGGTGGCTACGACGGGATT
# B22: GGGUCCA (DNA:RNA)
# RNA: GGGAGACCGGAAUUCAGAUUGUCCGGGUCCAUUAAAUCCCGUCGUAGCCACCA
# DNA 1: CAATCTGAATTCCGGTCTCCC
# DNA 2: TGGTGGCTACGACGGGATT
# B23: AAACACC (DNA:RNA)
# RNA: B1 RNA with C25A, A30C
# DNA 1: CAATCTGAATTCCGGTCTCCC
# DNA 2: TGGTGGCTACGACGGGATT
# B24: CGGGCCA (DNA:RNA)
# RNA: B22 RNA with G25C, U28G
# DNA 1: CAATCTGAATTCCGGTCTCCC
# DNA 2: TGGTGGCTACGACGGGATT
# B25: UCGCACA (DNA:RNA)
# RNA: B22 RNA with G25U, G26C, U28C, C29A
# DNA 1: CAATCTGAATTCCGGTCTCCC
# DNA 2: TGGTGGCTACGACGGGATT
# B26: AGCCGGG (DNA:RNA)
# RNA: B9 RNA with U25A, U26G, G28C, U29G
# DNA 1: CAATCTGAATTCCGGTCTCCC
# DNA 2: TGGTGGCTACGACGGGATT
# B27: UUCUUGG (DNA:RNA)
# RNA: B9 RNA with G28U
# DNA 1: CAATCTGAATTCCGGTCTCCC
# DNA 2: TGGTGGCTACGACGGGATT
# B28: UGCGUUU (DNA:RNA)
# RNA: B9 RNA with U26G, G30U, G31U
# DNA 1: CAATCTGAATTCCGGTCTCCC
# DNA 2: TGGTGGCTACGACGGGATT
# B29: UUCGACA (DNA:RNA)
# RNA: B9 RNA with U29A, G30C, G31A
# DNA 1: CAATCTGAATTCCGGTCTCCC
# DNA 2: TGGTGGCTACGACGGGATT
# B30: CCGUUGA (DNA:RNA)
# RNA: B22 RNA with G25C, G26C, C29U, C30G
# DNA 1: CAATCTGAATTCCGGTCTCCC
# DNA 2: TGGTGGCTACGACGGGATT
# B31: AAGCAUC (DNA:RNA)
# RNA: B1 RNA with C25A, A27G, A30U
# DNA 1: CAATCTGAATTCCGGTCTCCC
# DNA 2: TGGTGGCTACGACGGGATT
# Target: T1, RBFOX1 RRM RbFoxmut (Fox-RRM*)
# Experiment: EMSA; HiTS-Eq, 1 nM pool, 10 min; buffer printed only for the single-RNA assays: 10 mM Tris pH 7.5, 150 mM NaCl, 3.4 mM EDTA, 0.001% NP-40, 30 C
# Settings: tags: His6 N-terminal (pET28a); label: 5' 32P
# Method in brief: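 A pool of RNA with 7 randomized nucleotides, 5′-radiolabelled and with DNA-annealed flanks, was equilibrated at 1 nM for 10 min in 50 µL with purified RbFox RRM, wild type or mutant, across increasing protein concentrations. Free RNA was separated by 8% native PAGE, excised, reverse-transcribed, barcoded by PCR and sequenced. Relative association constants were obtained from read-count changes of each RNA species versus the control reaction and normalised to the cognate motif.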
row,Binder,binding signal
1,B1,0.0578 KA relative to UGCAUGU
2,B2,0.162 KA relative to UGCAUGU
3,B3,0.184 KA relative to UGCAUGU
4,B4,0.0815 KA relative to UGCAUGU
5,B5,0.101 KA relative to UGCAUGU
6,B6,0.119 KA relative to UGCAUGU
7,B7,0.0747 KA relative to UGCAUGU
8,B8,0.0749 KA relative to UGCAUGU
9,B9,0.099 KA relative to UGCAUGU
10,B10,0.0442 KA relative to UGCAUGU
11,B11,0.081 KA relative to UGCAUGU
12,B12,0.0773 KA relative to UGCAUGU
13,B13,0.0751 KA relative to UGCAUGU
14,B14,0.0732 KA relative to UGCAUGU
15,B15,0.0941 KA relative to UGCAUGU
16,B16,0.135 KA relative to UGCAUGU

row,Binder,binding signal
1,B17,0.119 KA relative to UGCAUGU
2,B18,0.114 KA relative to UGCAUGU
3,B19,0.135 KA relative to UGCAUGU
4,B20,0.103 KA relative to UGCAUGU
5,B21,0.0581 KA relative to UGCAUGU
6,B22,0.124 KA relative to UGCAUGU
7,B23,0.0523 KA relative to UGCAUGU
8,B24,0.0815 KA relative to UGCAUGU
9,B25,0.069 KA relative to UGCAUGU
10,B26,0.0677 KA relative to UGCAUGU
11,B27,0.0878 KA relative to UGCAUGU
12,B28,0.0934 KA relative to UGCAUGU
13,B29,0.0669 KA relative to UGCAUGU
14,B30,0.112 KA relative to UGCAUGU
15,B31,0.196 KA relative to UGCAUGU
